Our source for the NF-kB reporter and ISRE reporter values is the supplement of paper PMC9174493.

For assay [1], the system named is A549-Dual. In words: NF-kB reporter (SEAP) activity, viability-corrected, relative to vehicle (fold change vs vehicle); higher = more activation of STING-IRF / NF-kB immune response reporter. The conditions noted are these: 10 µM.
In assay [2] the test system is A549-Dual. The experiment in a line: ISRE reporter (Lucia luciferase) activity, viability-corrected, relative to vehicle (fold change vs vehicle); higher = more activation of STING-IRF / NF-kB immune response reporter. The settings on record: 10 µM.

Some of the results follow. Single values of this set are uncertain. Values with irradiation are relative to irradiated vehicle.
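Throughout, for NF-kB reporter (SEAP) activity, viability-corrected, relative to vehicle: viability correction based on the alamar blue assay, with concentrations leaving 10% survival or less dropped.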

`COC1C(OC(C)=O)CC(=O)OC(C)C/C=C/C=C/C(OC2CCC(N(C)C)C(C)O2)C(C)CC(CC=O)C1OC1OC(C)C(OC2CC(C)(O)C(O)C(C)O2)C(N(C)C)C1O` (stereo unspecified) [Acetylspiramycin (ASPM)]: the NF-kB reporter with A549-Dual [1] (irradiation: 8 Gy/4 fr) was 0.723; with A549-Dual [1] (irradiation: none), 0.99. Also, the ISRE reporter was determined as 1.04 with A549-Dual [2] (irradiation: 8 Gy/4 fr) and 1.06 in the assay on A549-Dual [2] (irradiation: none).

With `C[C@H](O)C(=O)[O-].[Na+]` [Sodium L-lactate], the NF-kB reporter with A549-Dual [1] (irradiation: 8 Gy/4 fr) came out at 0.76; with A549-Dual [1] (irradiation: none), 0.728. Also, the ISRE reporter in the assay with A549-Dual [2] (irradiation: 8 Gy/4 fr) came to 1.02; with A549-Dual [2] (irradiation: none), 0.771.

As for `CCC(CO)NCCNC(CC)CO.Cl.Cl` (stereo unspecified) [Ethambutol 2HCl], the NF-kB reporter in the assay on A549-Dual [1] (irradiation: 8 Gy/4 fr) was 1.02; in the assay on A549-Dual [1] (irradiation: none), 1.01. Further, the ISRE reporter stood at 1.09 with A549-Dual [2] (irradiation: 8 Gy/4 fr) and 0.889 in the assay on A549-Dual [2] (irradiation: none).

For the molecule `C[N+](C)(C)CC(O)CC(=O)O.[Cl-]` (racemic) [DL-Carnitine HCl], the NF-kB reporter in the assay with A549-Dual [1] (irradiation: 8 Gy/4 fr) worked out at 0.887; in the assay with A549-Dual [1] (irradiation: none), 1.08. The ISRE reporter stood at 0.921 in the assay on A549-Dual [2] (irradiation: 8 Gy/4 fr) and 0.959 in the assay on A549-Dual [2] (irradiation: none).

As to `Cc1cc(=O)n(-c2ccccc2)n1C` [Antipyrine], the NF-kB reporter in the assay with A549-Dual [1] (irradiation: 8 Gy/4 fr) turned out to be 0.905; in the assay with A549-Dual [1] (irradiation: none), 0.94. For the same molecule, the results for the ISRE reporter in the assay with A549-Dual [2] (irradiation: 8 Gy/4 fr) and in the assay on A549-Dual [2] (irradiation: none) were 1.05 and 0.834, respectively.

Consider `CCc1ccc(C(=O)C(C)CN2CCCCC2)cc1.Cl` (stereo unspecified) [Eperisone hydrochloride], for which the NF-kB reporter with A549-Dual [1] (irradiation: 8 Gy/4 fr) stood at 1.58; in the assay on A549-Dual [1] (irradiation: none), 0.824. Further, the ISRE reporter with A549-Dual [2] (irradiation: 8 Gy/4 fr) was found to be 0.329; in the assay on A549-Dual [2] (irradiation: none) it was 0.783.

As for `Cn1nnc(-c2ccc(-c3ccc(N4CC(COP(=O)(O)O)OC4=O)cc3F)cn2)n1` (stereo unspecified) [Tedizolid Phosphate], the NF-kB reporter with A549-Dual [1] (irradiation: 8 Gy/4 fr) was determined as 0.537; in the assay on A549-Dual [1] (irradiation: none), 0.818. Besides, the ISRE reporter turned out to be 0.321 in the assay on A549-Dual [2] (irradiation: 8 Gy/4 fr) and 0.479 in the assay with A549-Dual [2] (irradiation: none).

For `CC(O)C(=O)Nc1c(I)c(C(=O)NC(CO)CO)c(I)c(C(=O)NC(CO)CO)c1I` (stereo unspecified) [Iopamidol], the NF-kB reporter with A549-Dual [1] (irradiation: 8 Gy/4 fr) was 0.825; in the assay on A549-Dual [1] (irradiation: none), 0.729. Further, the ISRE reporter in the assay on A549-Dual [2] (irradiation: 8 Gy/4 fr) worked out at 0.85; in the assay on A549-Dual [2] (irradiation: none) it was 0.699.

As to `OCCc1ccc(O)cc1` [Tyrosol], the results for the NF-kB reporter in the assay on A549-Dual [1] (irradiation: 8 Gy/4 fr) and in the assay on A549-Dual [1] (irradiation: none) were 0.707 and 0.624, respectively. Further, the ISRE reporter in the assay with A549-Dual [2] (irradiation: 8 Gy/4 fr) worked out at 0.827; in the assay on A549-Dual [2] (irradiation: none), 0.768.

As to `CCCCCCCCC(=O)O` [Nonanoic acid], the values for the NF-kB reporter in the assay on A549-Dual [1] (irradiation: 8 Gy/4 fr) and in the assay with A549-Dual [1] (irradiation: none) were 0.766 and 0.914, respectively. For the same molecule, the ISRE reporter in the assay on A549-Dual [2] (irradiation: 8 Gy/4 fr) turned out to be 0.703; in the assay on A549-Dual [2] (irradiation: none) it was 0.814.

For the molecule `OCC1OC(O)CC(O)C1O` [2-Deoxy-D-glucose], the NF-kB reporter in the assay on A549-Dual [1] (irradiation: 8 Gy/4 fr) amounted to 0.984; in the assay on A549-Dual [1] (irradiation: none) it was 0.857. Also, the figures for the ISRE reporter with A549-Dual [2] (irradiation: 8 Gy/4 fr) and in the assay with A549-Dual [2] (irradiation: none) were 0.989 and 0.849, respectively.

In the case of `CC(C)(Oc1ccc(Cl)cc1)C(=O)O` [Clofibric Acid], the values for the NF-kB reporter in the assay with A549-Dual [1] (irradiation: 8 Gy/4 fr) and in the assay on A549-Dual [1] (irradiation: none) were 1.22 and 0.82, respectively. Moreover, the ISRE reporter in the assay on A549-Dual [2] (irradiation: 8 Gy/4 fr) turned out to be 1.02; in the assay on A549-Dual [2] (irradiation: none), 0.656.

Consider `CC(CN1CC(=O)NC(=O)C1)N1CC(=O)NC(=O)C1` (stereo unspecified) [Dexrazoxane], for which the results for the NF-kB reporter in the assay with A549-Dual [1] (irradiation: 8 Gy/4 fr) and in the assay on A549-Dual [1] (irradiation: none) were 1.14 and 1.61, respectively. For the same molecule, the ISRE reporter in the assay on A549-Dual [2] (irradiation: 8 Gy/4 fr) was determined as 0.929; in the assay on A549-Dual [2] (irradiation: none) it was 3.75.

As to `CCN(CCO)CCCC(C)Nc1ccnc2cc(Cl)ccc12.O=S(=O)(O)O` (stereo unspecified) [Hydroxychloroquine Sulfate], the NF-kB reporter was found to be 0.71 in the assay with A549-Dual [1] (irradiation: 8 Gy/4 fr) and 0.885 in the assay on A549-Dual [1] (irradiation: none). For the same molecule, the ISRE reporter with A549-Dual [2] (irradiation: 8 Gy/4 fr) was 0.811; in the assay with A549-Dual [2] (irradiation: none) it was 1.34.

As to `C/C=C1/C(OC2OC(CO)C(O)C(O)C2O)OC=C(C(=O)OC)C1CC(=O)OCCc1ccc(O)c(O)c1` (stereo unspecified) [Oleuropein], the NF-kB reporter in the assay on A549-Dual [1] (irradiation: 8 Gy/4 fr) worked out at 1.65; in the assay with A549-Dual [1] (irradiation: none) it was 0.637. In addition, the ISRE reporter in the assay on A549-Dual [2] (irradiation: 8 Gy/4 fr) was found to be 1.59; with A549-Dual [2] (irradiation: none), 0.705.

With `COc1cc(NC(C)CCCN)c2ncccc2c1.O=P(O)(O)O.O=P(O)(O)O` (stereo unspecified) [Primaquine Diphosphate], the NF-kB reporter was found to be 1.09 in the assay with A549-Dual [1] (irradiation: 8 Gy/4 fr) and 1.48 in the assay on A549-Dual [1] (irradiation: none). The ISRE reporter with A549-Dual [2] (irradiation: 8 Gy/4 fr) came out at 1.03; in the assay on A549-Dual [2] (irradiation: none), 1.19.

`CCCC(=O)[O-].[Na+]` [Sodium butyrate]: the NF-kB reporter is 0.83 in the assay on A549-Dual [1] (irradiation: 8 Gy/4 fr) and 0.992 in the assay with A549-Dual [1] (irradiation: none). The figures for the ISRE reporter in the assay with A549-Dual [2] (irradiation: 8 Gy/4 fr) and with A549-Dual [2] (irradiation: none) were 0.804 and 1.1, respectively.

Turning to `CC(=O)C1(O)CCC2C3CC(C)C4=CC(=O)C=CC4(C)C3(F)C(O)CC21C` (stereo unspecified) [Fluorometholone], the results for the NF-kB reporter in the assay with A549-Dual [1] (irradiation: 8 Gy/4 fr) and in the assay with A549-Dual [1] (irradiation: none) were 0.289 and 0.747, respectively. Further, the ISRE reporter with A549-Dual [2] (irradiation: 8 Gy/4 fr) stood at 0.0523; with A549-Dual [2] (irradiation: none), 0.212.

Consider `Cl.O=C1Cc2cc(CCN3CCN(c4nsc5ccccc45)CC3)c(Cl)cc2N1` [Ziprasidone HCl], for which the NF-kB reporter with A549-Dual [1] (irradiation: 8 Gy/4 fr) was determined as 0.999; in the assay with A549-Dual [1] (irradiation: none), 0.863. Besides, the figures for the ISRE reporter in the assay with A549-Dual [2] (irradiation: 8 Gy/4 fr) and in the assay on A549-Dual [2] (irradiation: none) were 0.792 and 0.599, respectively.
